# Data from the supplement of paper PMC8728848.
# The list shows a part of the results.
# B1: DBA (Dolichos biflorus) (protein)
# chain: ANIQSFSFKNFNSPSFILQGDATVSSGKLQLTKVKENGFPLRFPSGRAFYSSPIQIYDKFTGAVASWATSFTVKISAPSKASFADGIAFALVPVGSEPRRNGGYLGVFDSDVYNNSAQTVAVEFDTLSNSGWDPSMKHIGIDVNSIKSIATVSWDLANGENAEILITYNAATSLLVVSLVHPSRRTSYILSERVDITNELPEYVGVGFSATTGLSEGYIETHDVLSWSFASRLPDDSTAEPLDLARYLVRNVL
# Legend:
# Assay in all cases: glycan array binding signal (z-score within array); higher = stronger binding
# Conditions in all cases: glycan notation: IUPAC condensed, linker removed
# [1] = molecular target: Fuc(a1-3)[Gal(b1-4)]GlcNAc(b1-3)Gal(b1-3)[Fuc(a1-4)]GlcNAc
# In short: (§1)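 From the Consortium for Functional Glycomics database, 3228 arrays were curated, keeping only those whose protein sequence was available. Binding is given as a within-array Z-score averaged across arrays sharing a protein sequence and across linkers. Negative Z-scores can be read as non-binding.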
# [2] = molecular target: Fuc(a1-3)[Gal(b1-4)]GlcNAc(b1-3)Gal(b1-4)[Fuc(a1-3)]GlcNAc
# In short: as §1
# [3] = molecular target: Fuc(a1-3)[Gal(b1-4)]GlcNAc(b1-3)Gal(b1-4)[Fuc(a1-3)]GlcNAc(b1-3)Gal(b1-4)[Fuc(a1-3)]GlcNAc
# In short: as §1
# [4] = molecular target: Fuc(a1-3)[Gal(b1-4)]GlcNAc(b1-3)GalNAc
# In short: as §1
# [5] = molecular target: Fuc(a1-3)[Gal(b1-4)]GlcNAc(b1-4)Gal(b1-4)[Fuc(a1-3)]GlcNAc
# In short: as §1
# [6] = molecular target: Fuc(a1-3)[Gal(b1-4)]GlcNAc(b1-4)Gal(b1-4)[Fuc(a1-3)]GlcNAc(b1-4)Gal(b1-4)[Fuc(a1-3)]GlcNAc
# In short: as §1
# [7] = molecular target: Fuc(a1-3)[Gal(b1-4)]GlcNAc(b1-6)GalNAc
# In short: as §1
# [8] = molecular target: Fuc(a1-3)[Gal(b1-4)]GlcNAc(b1-6)[Gal(b1-3)GlcNAc(b1-3)]Gal(b1-4)Glc
# In short: as §1
# [9] = molecular target: Fuc(a1-3)[Gal(b1-4)]GlcNAc6S
# In short: as §1
# [10] = molecular target: Fuc(a1-3)[Gal3S(b1-4)]Glc
# In short: as §1
# [11] = molecular target: Fuc(a1-3)[Gal3S(b1-4)]GlcNAc
# In short: as §1
# [12] = molecular target: Fuc(a1-3)[Gal3S(b1-4)]GlcNAc6S
# In short: as §1
# [13] = molecular target: Fuc(a1-3)[GalNAc(b1-4)]GlcNAc
# In short: as §1
# [14] = molecular target: Fuc(a1-3)[GalNAc(b1-4)]GlcNAc6S
# In short: as §1
# Fuc(a1-4)GlcNAc = molecular target: Fuc(a1-4)GlcNAc
# In short: as §1
# Fuc(b1-3)GlcNAc = molecular target: Fuc(b1-3)GlcNAc
# In short: as §1
# Gal(a1-2)Gal = molecular target: Gal(a1-2)Gal
# In short: as §1
# Gal(a1-3)Gal = molecular target: Gal(a1-3)Gal
# In short: as §1
# Gal(a1-3)Gal(b1-3)GlcNAc = molecular target: Gal(a1-3)Gal(b1-3)GlcNAc
# In short: as §1
# [15] = molecular target: Gal(a1-3)Gal(b1-3)GlcNAc(b1-2)Man
# In short: as §1
# [16] = molecular target: Gal(a1-3)Gal(b1-3)GlcNAc(b1-2)Man(a1-3)[Gal(a1-3)Gal(b1-3)GlcNAc(b1-2)Man(a1-6)]Man(b1-4)GlcNAc(b1-4)GlcNAc
# In short: as §1
# [17] = molecular target: Gal(a1-3)Gal(b1-3)GlcNAc(b1-3)GalNAc
# In short: as §1
# [18] = molecular target: Gal(a1-3)Gal(b1-3)GlcNAc(b1-6)GalNAc
# In short: as §1
# [19] = molecular target: Gal(a1-3)Gal(b1-3)[Fuc(a1-4)]GlcNAc(b1-2)Man(a1-3)[Gal(a1-3)Gal(b1-3)[Fuc(a1-4)]GlcNAc(b1-2)Man(a1-6)]Man(b1-4)GlcNAc(b1-4)GlcNAc
# In short: as §1
# Gal(a1-3)Gal(b1-4)Glc = molecular target: Gal(a1-3)Gal(b1-4)Glc
# In short: as §1
# Gal(a1-3)Gal(b1-4)GlcNAc = molecular target: Gal(a1-3)Gal(b1-4)GlcNAc
# In short: as §1
# [20] = molecular target: Gal(a1-3)Gal(b1-4)GlcNAc(b1-2)Man
# In short: as §1
# [21] = molecular target: Gal(a1-3)Gal(b1-4)GlcNAc(b1-2)Man(a1-3)[Gal(a1-3)Gal(b1-4)GlcNAc(b1-2)Man(a1-6)]Man(b1-4)GlcNAc(b1-4)GlcNAc
# In short: as §1
# [22] = molecular target: Gal(a1-3)Gal(b1-4)GlcNAc(b1-3)GalNAc
# In short: as §1
# [23] = molecular target: Gal(a1-3)Gal(b1-4)GlcNAc(b1-6)GalNAc
# In short: as §1
# [24] = molecular target: Gal(a1-3)Gal(b1-4)[Fuc(a1-3)]GlcNAc
# In short: as §1
# [25] = molecular target: Gal(a1-3)Gal(b1-4)[Fuc(a1-3)]GlcNAc(b1-2)Man(a1-3)[Gal(a1-3)Gal(b1-4)[Fuc(a1-3)]GlcNAc(b1-2)Man(a1-6)]Man(b1-4)GlcNAc(b1-4)GlcNAc
# In short: as §1
# Gal(a1-3)GalNAc = molecular target: Gal(a1-3)GalNAc
# In short: as §1
# [26] = molecular target: Gal(a1-3)[Gal(a1-4)]Gal(b1-4)GlcNAc
# In short: as §1
# [27] = molecular target: Gal(a1-4)Gal(b1-3)GlcNAc(b1-2)Man(a1-3)[Gal(a1-4)Gal(b1-3)GlcNAc(b1-2)Man(a1-6)]Man(b1-4)GlcNAc(b1-4)GlcNAc
# In short: as §1
# Gal(a1-4)Gal(b1-4)Glc = molecular target: Gal(a1-4)Gal(b1-4)Glc
# In short: as §1
# Gal(a1-4)Gal(b1-4)GlcNAc = molecular target: Gal(a1-4)Gal(b1-4)GlcNAc
# In short: as §1
# [28] = molecular target: Gal(a1-4)Gal(b1-4)GlcNAc(b1-2)Man(a1-3)[Gal(a1-4)Gal(b1-4)GlcNAc(b1-2)Man(a1-6)]Man(b1-4)GlcNAc(b1-4)GlcNAc
# In short: as §1
binder,measurement,setting,value
B1,glycan array binding signal (z-score),[1],-0.071
same,glycan array binding signal (z-score),[2],-0.061
same,glycan array binding signal (z-score),[3],0.005
same,glycan array binding signal (z-score),[4],-0.043
same,glycan array binding signal (z-score),[5],-0.19
same,glycan array binding signal (z-score),[6],-0.193
same,glycan array binding signal (z-score),[7],-0.011
same,glycan array binding signal (z-score),[8],-0.079
same,glycan array binding signal (z-score),[9],-0.1
same,glycan array binding signal (z-score),[10],-0.104
same,glycan array binding signal (z-score),[11],-0.127
same,glycan array binding signal (z-score),[12],-0.015
same,glycan array binding signal (z-score),[13],-0.114
same,glycan array binding signal (z-score),[14],-0.109
same,glycan array binding signal (z-score),Fuc(a1-4)GlcNAc,-0.115
same,glycan array binding signal (z-score),Fuc(b1-3)GlcNAc,-0.112
same,glycan array binding signal (z-score),Gal(a1-2)Gal,-0.133
same,glycan array binding signal (z-score),Gal(a1-3)Gal,-0.158
same,glycan array binding signal (z-score),Gal(a1-3)Gal(b1-3)GlcNAc,-0.124
same,glycan array binding signal (z-score),[15],-0.087
same,glycan array binding signal (z-score),[16],0.127
same,glycan array binding signal (z-score),[17],-0.089
same,glycan array binding signal (z-score),[18],0.047
same,glycan array binding signal (z-score),[19],0.092
same,glycan array binding signal (z-score),Gal(a1-3)Gal(b1-4)Glc,-0.119
same,glycan array binding signal (z-score),Gal(a1-3)Gal(b1-4)GlcNAc,-0.113
same,glycan array binding signal (z-score),[20],-0.132
same,glycan array binding signal (z-score),[21],0.082
same,glycan array binding signal (z-score),[22],-0.096
same,glycan array binding signal (z-score),[23],-0.118
same,glycan array binding signal (z-score),[24],-0.133
same,glycan array binding signal (z-score),[25],-0.104
same,glycan array binding signal (z-score),Gal(a1-3)GalNAc,-0.103
same,glycan array binding signal (z-score),[26],-0.075
same,glycan array binding signal (z-score),[27],-0.059
same,glycan array binding signal (z-score),Gal(a1-4)Gal(b1-4)Glc,-0.067
same,glycan array binding signal (z-score),Gal(a1-4)Gal(b1-4)GlcNAc,-0.115
same,glycan array binding signal (z-score),[28],-0.041
